Assay results taken from the supplement of paper PMC8728848.
The list shows a part of the results.

Legend:
Assay in all cases: glycan array binding signal (z-score within array); higher = stronger binding
Settings in all cases: glycan notation: IUPAC condensed, linker removed; mutation: W10H
[1] = biological target: Man(a1-2)Man(a1-3)[Man(a1-2)Man(a1-6)]Man
Summary of the method: (§1)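 Arrays were curated from the Consortium for Functional Glycomics database, 3228 in total, and kept only where the protein sequence was available. Binding is expressed as a within-array Z-score. This score was averaged across arrays of the same protein sequence at different concentrations or buffers and across linkers, and negative values can be read as non-binding.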

[2] = biological target: Man(a1-2)Man(a1-3)[Man(a1-2)Man(a1-6)]Man(a1-6)[Man(a1-2)Man(a1-2)Man(a1-3)]Man
Summary of the method: as §1

[3] = biological target: Man(a1-2)Man(a1-3)[Man(a1-2)Man(a1-6)]Man(a1-6)[Man(a1-2)Man(a1-2)Man(a1-3)]Man(b1-4)GlcNAc(b1-4)GlcNAc
Summary of the method: as §1

[4] = biological target: Man(a1-2)Man(a1-3)[Man(a1-6)]Man(a1-6)[Man(a1-2)Man(a1-3)]Man(b1-4)GlcNAc(b1-4)GlcNAc
Summary of the method: as §1

[5] = biological target: Man(a1-2)Man(a1-6)[Man(a1-3)]Man(a1-6)[Man(a1-2)Man(a1-2)Man(a1-3)]Man
Summary of the method: as §1

[6] = biological target: Man(a1-2)Man(a1-6)[Man(a1-3)]Man(a1-6)[Man(a1-2)Man(a1-2)Man(a1-3)]Man(b1-4)GlcNAc(b1-4)GlcNAc
Summary of the method: as §1

Man(a1-3)[Man(a1-6)]Man = biological target: Man(a1-3)[Man(a1-6)]Man
Summary of the method: as §1

[7] = biological target: Man(a1-3)[Man(a1-6)]Man(a1-6)[Man(a1-2)Man(a1-3)]Man(b1-4)GlcNAc(b1-4)GlcNAc
Summary of the method: as §1

[8] = biological target: Man(a1-3)[Man(a1-6)]Man(a1-6)[Man(a1-3)]Man
Summary of the method: as §1

[9] = biological target: Man(a1-3)[Man(a1-6)]Man(a1-6)[Man(a1-3)]Man(b1-4)GlcNAc(b1-4)GlcNAc
Summary of the method: as §1

[10] = biological target: Man(a1-3)[Man(a1-6)]Man(b1-4)GlcNAc(b1-4)GlcNAc
Summary of the method: as §1

[11] = biological target: Man(a1-3)[Man(a1-6)]Man(b1-4)GlcNAc(b1-4)[Fuc(a1-6)]GlcNAc
Summary of the method: as §1

Man(a1-6)Man = biological target: Man(a1-6)Man
Summary of the method: as §1

Man(b1-4)GlcNAc = biological target: Man(b1-4)GlcNAc
Summary of the method: as §1

MurNAc(b1-4)GlcNAc = biological target: MurNAc(b1-4)GlcNAc
Summary of the method: as §1

Neu5Ac(a2-3)Gal = biological target: Neu5Ac(a2-3)Gal
Summary of the method: as §1

[12] = biological target: Neu5Ac(a2-3)Gal(b1-3)GalNAc
Summary of the method: as §1

[13] = biological target: Neu5Ac(a2-3)Gal(b1-3)GalNAc(b1-3)Gal(a1-4)Gal(b1-4)Glc
Summary of the method: as §1

[14] = biological target: Neu5Ac(a2-3)Gal(b1-3)GalNAc(b1-4)Gal(b1-4)Glc
Summary of the method: as §1

[15] = biological target: Neu5Ac(a2-3)Gal(b1-3)GalNAc(b1-4)[Neu5Ac(a2-3)]Gal(b1-4)Glc
Summary of the method: as §1

[16] = biological target: Neu5Ac(a2-3)Gal(b1-3)GalNAc(b1-4)[Neu5Ac(a2-8)Neu5Ac(a2-3)]Gal(b1-4)Glc
Summary of the method: as §1

[17] = biological target: Neu5Ac(a2-3)Gal(b1-3)GalNAc6S
Summary of the method: as §1

[18] = biological target: Neu5Ac(a2-3)Gal(b1-3)GlcNAc
Summary of the method: as §1

[19] = biological target: Neu5Ac(a2-3)Gal(b1-3)GlcNAc(b1-2)Man
Summary of the method: as §1

[20] = biological target: Neu5Ac(a2-3)Gal(b1-3)GlcNAc(b1-2)Man(a1-3)[GlcNAc(b1-4)][Neu5Ac(a2-3)Gal(b1-3)GlcNAc(b1-2)Man(a1-6)]Man(b1-4)GlcNAc(b1-4)GlcNAc
Summary of the method: as §1

[21] = biological target: Neu5Ac(a2-3)Gal(b1-3)GlcNAc(b1-2)Man(a1-3)[Neu5Ac(a2-3)Gal(b1-3)GlcNAc(b1-2)Man(a1-6)]Man(b1-4)GlcNAc(b1-4)GlcNAc
Summary of the method: as §1

[22] = biological target: Neu5Ac(a2-3)Gal(b1-3)GlcNAc(b1-2)[Neu5Ac(a2-3)Gal(b1-3)GlcNAc(b1-4)]Man(a1-6)[Neu5Ac(a2-3)Gal(b1-3)GlcNAc(b1-2)Man(a1-3)]Man(b1-4)GlcNAc(b1-4)GlcNAc
Summary of the method: as §1

[23] = biological target: Neu5Ac(a2-3)Gal(b1-3)GlcNAc(b1-3)Gal(b1-3)GlcNAc
Summary of the method: as §1

[24] = biological target: Neu5Ac(a2-3)Gal(b1-3)GlcNAc(b1-3)Gal(b1-4)GlcNAc
Summary of the method: as §1

[25] = biological target: Neu5Ac(a2-3)Gal(b1-3)GlcNAc(b1-3)GalNAc
Summary of the method: as §1

[26] = biological target: Neu5Ac(a2-3)Gal(b1-3)GlcNAc(b1-6)GalNAc
Summary of the method: as §1

[27] = biological target: Neu5Ac(a2-3)Gal(b1-3)GlcNAc6S
Summary of the method: as §1

[28] = biological target: Neu5Ac(a2-3)Gal(b1-3)[Fuc(a1-4)]GlcNAc
Summary of the method: as §1

[29] = biological target: Neu5Ac(a2-3)Gal(b1-3)[Fuc(a1-4)]GlcNAc(b1-3)Gal(b1-3)[Fuc(a1-4)]GlcNAc
Summary of the method: as §1

[30] = biological target: Neu5Ac(a2-3)Gal(b1-3)[Fuc(a1-4)]GlcNAc(b1-3)Gal(b1-4)[Fuc(a1-3)]GlcNAc
Summary of the method: as §1

[31] = biological target: Neu5Ac(a2-3)Gal(b1-3)[GlcNAc(b1-6)]GalNAc
Summary of the method: as §1

[32] = biological target: Neu5Ac(a2-3)Gal(b1-3)[Neu5Ac(a2-6)]GalNAc
Summary of the method: as §1

[33] = biological target: Neu5Ac(a2-3)Gal(b1-3)[Neu5Ac(a2-6)]GlcNAc(b1-3)[Fuc(a1-3)[Gal(b1-4)]GlcNAc(b1-6)]Gal(b1-4)Glc
Summary of the method: as §1

B1: Banana lectin (Musa acuminata) (protein)
chain: MNGAIKVGAHGGNGGSAFDMGPAYRIISVKIFSGDVVDGVDVTFTYYGKTETRHYGGSGGTPHEIVLQEGEYLVGMAGEVANYHGAVVLGKLGFSTNKKAYGPFGNTGGTPFSLPIAAGKISGFFGRGGKFLDAIGVYLEPLEHHHHHH
B1 was tested. Which “glycan array binding signal (z-score)” value [1] did it give?
The value was 2.86.

What about the “glycan array binding signal (z-score)” value [2] of the same binder?
The value was 6.5.

And the “glycan array binding signal (z-score)” value [3]?
The value was 2.96.

What about the “glycan array binding signal (z-score)” value [4] of the same binder?
Its value is 9.34.

And the “glycan array binding signal (z-score)” value [5]?
Its value is 5.18.

What about the “glycan array binding signal (z-score)” value [6] of the same binder?
The value was 6.56.

And the “glycan array binding signal (z-score)” value (Man(a1-3)[Man(a1-6)]Man)?
Its value is 2.82.

And the “glycan array binding signal (z-score)” value [7]?
The value was 13.5.

And the “glycan array binding signal (z-score)” value [8]?
The value was -0.126.

And the “glycan array binding signal (z-score)” value [9]?
The value was 3.07.

What about the “glycan array binding signal (z-score)” value [10] of the same binder?
The value was 6.6.

What about the “glycan array binding signal (z-score)” value [11] of the same binder?
Its value is 2.33.

And the “glycan array binding signal (z-score)” value (Man(a1-6)Man)?
The value was -0.124.

And the “glycan array binding signal (z-score)” value (Man(b1-4)GlcNAc)?
The value was -0.183.

And the “glycan array binding signal (z-score)” value (MurNAc(b1-4)GlcNAc)?
Its value is -0.177.

And the “glycan array binding signal (z-score)” value (Neu5Ac(a2-3)Gal)?
The value was -0.197.

And the “glycan array binding signal (z-score)” value [12]?
Its value is -0.138.

What about the “glycan array binding signal (z-score)” value [13] of the same binder?
The value was -0.167.

And the “glycan array binding signal (z-score)” value [14]?
The value was -0.186.

What about the “glycan array binding signal (z-score)” value [15] of the same binder?
The value was -0.187.

What about the “glycan array binding signal (z-score)” value [16] of the same binder?
Its value is -0.172.

And the “glycan array binding signal (z-score)” value [17]?
Its value is -0.191.

What about the “glycan array binding signal (z-score)” value [18] of the same binder?
The value was -0.166.

What about the “glycan array binding signal (z-score)” value [19] of the same binder?
The value was -0.227.

What about the “glycan array binding signal (z-score)” value [20] of the same binder?
Its value is -0.163.

And the “glycan array binding signal (z-score)” value [21]?
The value was -0.192.

And the “glycan array binding signal (z-score)” value [22]?
Its value is 0.013.

What about the “glycan array binding signal (z-score)” value [23] of the same binder?
The value was -0.174.

What about the “glycan array binding signal (z-score)” value [24] of the same binder?
The value was -0.201.

What about the “glycan array binding signal (z-score)” value [25] of the same binder?
The value was -0.169.

What about the “glycan array binding signal (z-score)” value [26] of the same binder?
The value was -0.186.

What about the “glycan array binding signal (z-score)” value [27] of the same binder?
Its value is -0.145.

What about the “glycan array binding signal (z-score)” value [28] of the same binder?
Its value is -0.171.

And the “glycan array binding signal (z-score)” value [29]?
The value was -0.185.

What about the “glycan array binding signal (z-score)” value [30] of the same binder?
Its value is -0.102.

What about the “glycan array binding signal (z-score)” value [31] of the same binder?
Its value is -0.103.

And the “glycan array binding signal (z-score)” value [32]?
The value was -0.182.

What about the “glycan array binding signal (z-score)” value [33] of the same binder?
The value was -0.16.
